In PubChem BioAssay AID588591 (National Center for Advancing Translational Sciences (NCATS), 2011):
Screen size: about 390,000 compounds; about 4,700 (1.2%) were called active. The inconclusive results got no clear call from the source; some entries with a clear call stand among them for comparison. Calls come from the whole dose curve; as a rule, active = well fitted inhibition curve with a large enough effect; inconclusive = small, poorly fitted or top-dose-only effect, or another doubt; inactive = no such curve, though single readings can be large or run the other way. A potency beside an inconclusive call is a rough fit, not a confirmed value.

Biological target: DNA polymerase eta (Homo sapiens) (UniProt Q9Y253)
Chain of UniProt Q9Y253 (Q9Y253 whole entry, looked up): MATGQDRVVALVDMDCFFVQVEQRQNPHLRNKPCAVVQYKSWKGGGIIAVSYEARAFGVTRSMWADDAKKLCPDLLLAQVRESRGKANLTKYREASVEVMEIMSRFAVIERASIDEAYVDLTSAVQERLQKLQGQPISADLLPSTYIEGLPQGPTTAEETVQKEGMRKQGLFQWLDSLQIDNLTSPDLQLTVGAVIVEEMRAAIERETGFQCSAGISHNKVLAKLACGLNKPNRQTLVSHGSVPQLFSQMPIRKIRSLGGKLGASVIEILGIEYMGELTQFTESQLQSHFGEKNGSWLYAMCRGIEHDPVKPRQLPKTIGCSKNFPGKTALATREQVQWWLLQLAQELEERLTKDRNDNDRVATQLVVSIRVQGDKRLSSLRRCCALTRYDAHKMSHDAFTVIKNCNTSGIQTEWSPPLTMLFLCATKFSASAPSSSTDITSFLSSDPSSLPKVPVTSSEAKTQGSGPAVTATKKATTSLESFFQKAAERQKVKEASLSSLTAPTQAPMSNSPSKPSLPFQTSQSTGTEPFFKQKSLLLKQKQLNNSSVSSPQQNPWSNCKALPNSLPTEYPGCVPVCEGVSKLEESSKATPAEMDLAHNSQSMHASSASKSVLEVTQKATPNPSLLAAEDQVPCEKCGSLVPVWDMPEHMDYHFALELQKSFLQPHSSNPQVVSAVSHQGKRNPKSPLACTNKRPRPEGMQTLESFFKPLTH
Experiment: qHTS for Inhibitors of Polymerase Eta
Details: recombinant Pol eta, fluorescent DNA replication assay; series mostly up to 114 µM; activity change, negative = inhibition: at the top concentration
Summary of the method: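 Fluorescent replication assay: 50 nM final substrate added after a 15 min room-temperature compound preincubation with 10 nM enzyme. Signal taken at 0 min and again at 10 min.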
% is set by controls: 0 for no effect and ±100 for the full control effect; potency is the fitted concentration of half-maximal effect; tags give direction and shape of the fitted curve.

| Structure (SMILES) | activity change, negative = inhibition | Potency |
| --- | --- | --- |
| Cc1cn2c(=O)cc(COC(=O)c3ccc(NC(=O)COc4ccccc4C)cc3)nc2s1 | inactive: -0.166% | – |
| CCOC(=O)c1cc(C(=O)NCc2ccc(Cl)cc2Cl)nn1C | – | inconclusive: 89.1 µM [inhibitor, partial curve, poor fit] |
| C=C(C)C(=O)Oc1ccc(N=Nc2ccc(C)cc2)ccc1=O | – | active: 3.55 µM |
| Cc1ccc(S(=O)(=O)Nc2ccccc2C(=O)Nc2nc(-c3ccc(F)cc3)cs2)cc1 | – | active: 89.1 µM |
| O=C(O)CCCCCn1c(SCC(=O)Nc2ccc(F)cc2)nc2ccsc2c1=O | inactive: -8.28% | – |
| N#C/C(=C(/O)CCl)c1nc(-c2ccccc2)cs1 | – | active: 39.8 µM |
| COc1ccc(NC(=O)Nc2ccc3nccnc3c2)cc1 | – | inconclusive: 44.7 µM [inhibitor, partial curve, poor fit] |
| CCN(CC)C(=O)C1=C(C)N(Cc2ccc(C(C)(C)C)cc2)C(=O)C(CC(=O)NCCCCc2ccccc2)C1 (stereo not drawn) | – | inconclusive: 44.7 µM [inhibitor, partial curve, poor fit] |
| O=C(c1ccco1)N1CCN(C(=O)c2ccc(-c3ccc([N+](=O)[O-])cc3)o2)CC1 | – | active: 22.4 µM |
| CC(=O)Nc1sc(C)c(C)c1C(=O)OCC(=O)Nc1ccc(S(N)(=O)=O)cc1 | – | inconclusive: 15.8 µM [inhibitor, partial curve] |
| Cc1cc(C)nc(N2CCC(C(=O)O)CC2)n1 | – | inconclusive: 25.1 µM [inhibitor, single point] |
| COc1ccc(N(C(=O)Cc2cccs2)C2C=CS(=O)(=O)C2)cc1 (stereo not drawn) | – | inconclusive: 79.4 µM [inhibitor, single point] |
| COc1ccccc1/C=C/C=N/NC(=O)CCC1C(=O)NN=C1C (stereo not drawn) | inactive: 2.37% | – |
| COc1ccc(NC(=O)c2ccco2)cc1NC(=O)COc1ccc(C)c(C)c1 | – | active: 89.1 µM |
| COc1ccc(-c2oc3cc(OC(C)=O)cc(OC(C)=O)c3c(=O)c2OC)cc1 | – | inconclusive: 31.6 µM [inhibitor, partial curve, poor fit] |
| COc1cccc(C(=O)NCC2OCCc3ccccc32)c1 (stereo not drawn) | inactive: -4.36% | – |
| O=C(CCS(=O)(=O)c1ccc(Br)cc1)Nc1cc(F)ccc1F | – | inconclusive: 14.1 µM [inhibitor, full curve, poor fit] |
| Cc1ccc(-n2nnnc2SCc2nc3sc(C)c(C)c3c(=O)[nH]2)cc1 | inactive: 3.15% | – |
| O=C(O)c1ccccc1-c1ccc(/C=c2\sc3nc4cc(Br)cnc4n3c2=O)o1 | – | active: 1.26 µM |
| Cc1ccc(S(=O)(=O)n2nc(C)c(S(=O)(=O)N3CCCCCC3)c2C)cc1 | inactive: -12.3% | – |
| Cc1nc(Nc2ccc(O)cc2)c2c3c(sc2n1)CCCC3 | – | inconclusive: 28.2 µM [inhibitor, partial curve] |
| CCN(CC)c1ccc2nc3ccccc3[n+](CC)c2c1 | – | inconclusive: 44.7 µM [inhibitor, partial curve, poor fit] |

| Structure (SMILES) | activity change, negative = inhibition | Potency |
| --- | --- | --- |
| O=S1(=O)NC(CC2=CCCCC2)C2CCCCC2O1 (stereo not drawn) | inactive: -14.5% | – |
| O=C1CC(=Nc2ccc([N+](=O)[O-])cc2)NN1c1c(Cl)cc(Cl)cc1Cl | – | active: 79.4 µM |
| Cc1nn(-c2ccccc2)c(Cl)c1/C=N/NC(=O)c1cccc(S(=O)(=O)N2CCCC2)c1 | – | inconclusive: 2.24 µM [inhibitor, full curve, poor fit] |
| Cc1ccc(S(=O)(=O)Nc2nc(CN3CCOCC3)nc3sc(C(=O)O)c(C)c23)cc1 | – | active: 12.6 µM |
| CCCCC1=CC2=CC(=O)C(C)(OC(=O)c3cccs3)C(=O)C2=CO1 (stereo not drawn) | – | active: 22.4 µM |
| CCCn1nc2cc(C(=O)NCCCCc3ccccc3)ccc2c1OCC | – | inconclusive: 79.4 µM [inhibitor, partial curve, poor fit] |
| CC(C)CC(OC(=O)c1cccs1)C(=O)NCc1ccco1 (stereo not drawn) | – | inconclusive: 89.1 µM [inhibitor, partial curve, poor fit] |
| O=C1NC(=Nc2cccc(O)c2)S/C1=C\c1cccc([N+](=O)[O-])c1 | – | inconclusive: 50.1 µM [inhibitor, partial curve, poor fit] |
| CCOC(=O)c1cnn2cc(-c3[nH]ncc3[N+](=O)[O-])cnc12 | – | inconclusive: 20 µM [inhibitor, partial curve, poor fit] |
| O=C(COC(=O)c1cnccn1)Nc1ncc(Cl)cc1Cl | – | active: 22.4 µM |
| CCN1CCN(S(=O)(=O)c2ccc(Cl)c(C(=O)Oc3ccc(CC(=O)OC)cc3)c2)CC1 | – | inconclusive: 0.562 µM [inhibitor, full curve, poor fit] |
| O=C(COC(=O)Cc1c(Cl)cccc1Cl)NCc1ccco1 | – | active: 35.5 µM |
| CCOc1cc(/C=C(\C#N)C(=O)Nc2cccc(C(=O)O)c2)cc(Br)c1OC(=O)c1ccc(OC)cc1 | – | active: 79.4 µM |
| COc1ccccc1/C=C1\SC(=S)N(NS(=O)(=O)c2ccc(C)cc2)C1=O | – | active: 89.1 µM |
| O=C(COc1ccccc1)Nc1cccc2nsnc12 | – | inconclusive: 35.5 µM [inhibitor, partial curve, poor fit] |
| C#CCOCCOCCOCCNc1nc(N2CCN(C(=O)CCCCCCCCCCNC(=O)Cn3cc(CCCCCN)nn3)CC2)nc(N2CCN(C(=O)CCCCCCCCCCNC(=O)[C@H]([C@@H](C)CC)n3cc(CCCCCN)nn3)CC2)n1 | – | inconclusive: 89.1 µM [inhibitor, partial curve, poor fit] |
| O=C(NCC1CCCO1)c1cccc2c1C(=O)c1ccc(N3CCC(Cc4ccccc4)CC3)cc1S2(=O)=O (stereo not drawn) | – | inconclusive: 50.1 µM [inhibitor, partial curve, poor fit] |
| Cc1ccc(NC(=O)/C=C/c2ccco2)nc1 | – | inconclusive: 25.1 µM [inhibitor, partial curve, poor fit] |
| CCc1ccc(C(=O)c2cn(CC(=O)Nc3ccc4c(c3)OCO4)c3ccc(CC)cc3c2=O)cc1 | – | active: 89.1 µM |
| CCOC(=O)c1oc2ccccc2c1CN1CC(C)OC(C)C1 (stereo not drawn) | – | inconclusive: 79.4 µM [inhibitor, partial curve, poor fit] |
| COc1ccc(N=C2SCC(=O)N2CCc2ccc(OC)c(OC)c2)cc1 | – | inconclusive: 100 µM [inhibitor, partial curve, poor fit] |
